Read counts are not given, so values of variants with three or more changes are uncertain.

B1: LINE1-full (parent)
chain: UACGUAGGUGGUUUUCCCCUGAUAGUGCUAAGGGGGCCUGGAAGUUUGGACUGGGCAGAGCUCAACACAGCGUGGCAAAGUGGCUGUGGCUAGACUGCCUCUCUGGAUUCCUCGUCACUCAGCAGGGCAUCUCUGAGAGAAAUGCC

The variants in this data set derive from B1. As to the kind of experiment: self-cleavage, relative activity (ratio to wild type); higher = more cleavage; in vitro, sequencing; the parent is a self-cleaving ribozyme.
For the variant A2G U62A A64G A136U, the self-cleavage was determined as 0.08.
As for A2U A50G A77U, the figure is 0.2; as for A2G U14C U73A U132C, 1.3; as for A2C C17A C63A U73A U87C A138G, 0.02.
In the case of A2G C19A U73G U108C U109C G126U, the self-cleavage was determined as 1.84.
As for U1C U13C U81C A142G, the figure is 0.24.
For A2G A65G U102C A141G, the self-cleavage was found to be 0.
As for A2G U29C C38U U46C A59U, the self-cleavage stood at 1.64.
Take U1C U14C A59G U62C: the self-cleavage was determined as 0.26.
Turning to A2G U9C U14C C38U U87C, the self-cleavage was found to be 0.61.
As for A2G U12A A30U A31G, the figure is 0.25; as for A2G U20A U62C A142G, 0.66; as for C3A A43G A59G A140G, 0.
As for U1C C71A A77U U115C A117G, the figure is 0.05.
As for A2U C56U A121G, the self-cleavage stood at 0.16.
Take A2G U112A A129G: the self-cleavage stood at 0.51.
In the case of A2G C3U A43G G44A, the self-cleavage amounted to 0.74.
Turning to C3U A67G A77G, the self-cleavage worked out at 0.
C3A U23A U85C: the self-cleavage was found to be 0.47.
For U1C U9C U20G, the self-cleavage was found to be 1.34.
Take C3U A43G G97U A138G: the self-cleavage was 0.14.
As for A2G U5C U39C A43G, the figure is 0; as for U1C U47A U62C U112A A124U, 0.
For the variant A2C A30G U73C A142U, the self-cleavage turned out to be 2.16.
For A2G G8U A42U U115C A136U, the self-cleavage came to 0.88.
For the variant U1C U26G G35U A124U, the self-cleavage was 0.8.
For U1C U47G U115C the value was 0.12; for A2G A24C A67U G122C, 0.86.
For A2G U62C A138G the value was 0.08; for A2G A69G U104C, 0.77; for A2G A43G U46A U62C U108C, 0.61.
Regarding U1C G36C A129G U143G, the self-cleavage turned out to be 0.38.
As for A2G U85C A142G, the self-cleavage came to 0.84.
As for A2G C37G A117G A138G, the figure is 1.39.
C3U G36A A124G: the self-cleavage amounted to 0.48.
For U1C U9C A43G U100C A124U A136G the value was 2.9.
For U1C U5A U62C U130C the value was 0.41; for U1C C63U A124G, 0.11.
As to C3A A64G U85A U104C, the self-cleavage was 0.
For U1C G8C A31U A59G A77G U112C the value was 0.
As for A2G U20A A79G U87A, the figure is 0; as for A2G U62C U85C, 1.09; as for A2G U46C U130C, 1.23.
Consider A2U U20A U134A, for which the self-cleavage was determined as 0.48.
For A2U G35A A42U A78G the value was 0.25; for A2G A22U A77C A79G A142G, 0.84; for A2G A22G A79G, 0.48.
For U1C U81C A94G G105U the value was 0.15; for A2G U46C U73C U85C, 1.31; for U1C U12G A31G G48A A67G, 0.
As for A2G U85C U115A, the figure is 0; as for U1C G8C A22G U104G A117U, 2.06; as for A2G U26C U39C C101A A129U, 0.95.
Turning to U1C G32A A67G, the self-cleavage amounted to 0.38.
As to A2C U52C A140G, the self-cleavage came out at 1.14.
As for A2U U12G C19U U108C, the figure is 0.48.
For U1C G93A A141G the value was 0.04; for A2G G75A U81A, 0.97; for A2G A65G U130A, 1.02.
For C3A U26A A94U G122A U132C the value was 0.25; for A2G G27A U39C, 0.69; for U1C U20G U85C, 0.
For A2U A22U U39C, the self-cleavage was 1.02.
As for U1C G36U U102C U112C C113A, the figure is 0.92; as for A2G U85A U102C, 0.3.
For the variant C3U A24G C56U, the self-cleavage is 0.38.
In the case of U1C U20C A59G, the self-cleavage was determined as 0.34.
Regarding A2G U62C U85C U102C G125U A141G, the self-cleavage was found to be 0.13.
As for A2G U9G U62C U100C U112A U134C, the figure is 0.
As for C3U A42G U46C, the figure is 0.57.
For A2U A57U U73C the value was 0.17.
Consider U1C U39A U73C, for which the self-cleavage amounted to 1.64.
As for A2U G105A A107G A121G, the figure is 1.12.
As for A2G G35A G82A, the figure is 0.79.
For the variant A2U U9C U26C G35A A69U U73C A78G A92G, the self-cleavage is 0.
For A2G U14C C76U G105A U130C A142G the value was 1.48; for A2U U85G A94G, 0.25.
Take U1C U23A A24G G105A: the self-cleavage came out at 1.15.
On to U1C U13G U73A U87A U109C A141G, for which the self-cleavage is 0.03.
As for A2G A43G C145U, the figure is 0.
Regarding A2G A42G U81A, the self-cleavage came out at 1.19.
With U1C U20A U39C C61A, the self-cleavage was determined as 0.1.
As to U1C U15A U102C U119C, the self-cleavage is 2.22.
Consider A2G U45C U100A, for which the self-cleavage came out at 0.41.
For A2G U47C A65G A94U the value was 0.44; for A2G U14C A59G, 0.53; for U1C U9C A22G C95U G97A, 0.15.
As for C3A G8A U14C, the figure is 0.83.
Turning to A2G U5C U46C C110U, the self-cleavage is 0.55.
Turning to A2G G4A U45C, the self-cleavage came to 1.62.
As for A2G A65C C110A, the figure is 0.15; as for U1G G97A A117G, 0.22.
Take U1C C71U U115C: the self-cleavage was 0.68.
With A2U U12C U85C U119A, the self-cleavage was 0.36.
As for U1C U5C C113A A124G U143C, the figure is 0.72; as for A2U U9C C19U U85C A107G, 0.19.
As for U1C U39C A50G G54A, the figure is 0.12; as for A2G U115C A121U, 0.32; as for A2G U85A A141G, 0.3.
In the case of U1C C63A A79G, the self-cleavage came to 0.06.
For the variant U1C U9A A22U, the self-cleavage was 0.74.
For the variant A2G U12A U52A U115C, the self-cleavage was 0.47.
For A2G A77G U81C the value was 1.79; for A2G G25C U46C U87A G93U A117G, 0.4.
As for A2G A24G U134C, the figure is 1.07.
For A2G A22U A64G G93A the value was 0.12.
On to A2G U13C G33A A65C, for which the self-cleavage is 0.28.
As to U1C G34A U46A U52C A77G, the self-cleavage came to 0.33.
Take A2G U87C U115C A136G: the self-cleavage was 0.77.
As for U1C U52A U104A A140G, the figure is 0.3; as for A2G A31G A43G U96A, 0.15; as for C3A U20C A92U U143C, 0.73.
As for A2G U23C U109A, the figure is 1.11.
As for A2G A31U U85C U102C, the self-cleavage worked out at 0.
For A2G G72A A141G the value was 0.69; for A2U C3A C17U A42G A121U, 1.25; for U1C U13C A67G G93A A129G U143C, 0.
As to C3G U47C U81A, the self-cleavage was 1.12.
For U1C U39C U47C the value was 1.43; for U1C C37U U45A A50G G75A U85A A142G, 0.07.
In the case of A2G U46C U132C, the self-cleavage amounted to 0.
As for A2G U39A U47C U87C, the self-cleavage is 2.16.
A2G U13C G89A: the self-cleavage is 0.32.
For A2U U26C A43G A78U A136U the value was 1.28; for A2C U12C A67G A124G, 0.
For A2U G36A A78U G114U the value was 1.14; for A2G G126U G139A, 1.23.
With U1C U9C A77G, the self-cleavage stood at 0.99.
Take C3A U45G C56U U119A: the self-cleavage was 0.21.
Consider A2G C16A A65U C113G A129C, for which the self-cleavage amounted to 0.16.
In the case of A2G U15C U29C U45A A67G A136U, the self-cleavage amounted to 0.37.
For U1C G33A A42G A78G the value was 1.5; for U1C G35A U39C A50G A67U U109C U115G, 0.
For A2G U26A U46A A79G the value was 0.36; for C3U A57G A77G G144A, 0.96.
As for U1C G7A U26G U91C A92U A117U, the figure is 0.37.
U1C U5A U102A U109C U130C: the self-cleavage was 1.53.
In the case of A2U U102A U134A, the self-cleavage turned out to be 0.93.
As for A2G U47C A121G, the figure is 2.04.
In the case of A2G U5C U9A U46A C98U, the self-cleavage was found to be 0.71.
With A2G U46A A59G A140G, the self-cleavage turned out to be 0.57.
As for A2G U12C U20A U47A U115C A121U U143C, the figure is 0.38.
A2G U5G A30U: the self-cleavage was found to be 0.92.
A2G U12G A43G G82A: the self-cleavage stood at 0.69.
For U1C U115C A121C G125U the value was 0.34; for A2G G53A C120U, 1.97; for U1C C71A A94G A121U A124G, 0.
As to A2G U39A A67G U130A, the self-cleavage turned out to be 0.75.
For A2G U9C A92U the value was 0.34; for C3A A57G U134A, 0.16.
Take U1C U81A A92U U143A: the self-cleavage was determined as 0.48.
As for A2G U12G G34U U109A, the figure is 0.57.
As for C3U A50G U115A, the figure is 1.18; as for A2G A57G A124G, 0.97; as for U1C U87C U134A U143A, 0.
For U1C U23C G72A U132A the value was 0.78; for U1C U23C A79G, 1.84; for A2G U12G U15C U130C A140G, 2.3.
Take A2G G53U U115A: the self-cleavage was found to be 0.95.
In the case of U1G G21A U87G A129G A141G, the self-cleavage amounted to 0.3.
A2G A67G A94G: the self-cleavage came out at 0.16.
As for A2G U5C A30U A141G, the figure is 0.55; as for C3U U5C U13C U108C, 0.94; as for A2G G32A A79C, 1.13.
Turning to U1C U45G U62C U87C, the self-cleavage is 0.27.
On to C3A U12A A43U, for which the self-cleavage was 0.51.
A2G A6U A42U U134A: the self-cleavage was found to be 0.65.
